Results on four molecules are retold here after publication PMC9326217.

Amino acid sequences for entries named in this document (tags omitted). A change or cut given only in a name is not applied to a line headed by its entry.
UniProt Q9Z340: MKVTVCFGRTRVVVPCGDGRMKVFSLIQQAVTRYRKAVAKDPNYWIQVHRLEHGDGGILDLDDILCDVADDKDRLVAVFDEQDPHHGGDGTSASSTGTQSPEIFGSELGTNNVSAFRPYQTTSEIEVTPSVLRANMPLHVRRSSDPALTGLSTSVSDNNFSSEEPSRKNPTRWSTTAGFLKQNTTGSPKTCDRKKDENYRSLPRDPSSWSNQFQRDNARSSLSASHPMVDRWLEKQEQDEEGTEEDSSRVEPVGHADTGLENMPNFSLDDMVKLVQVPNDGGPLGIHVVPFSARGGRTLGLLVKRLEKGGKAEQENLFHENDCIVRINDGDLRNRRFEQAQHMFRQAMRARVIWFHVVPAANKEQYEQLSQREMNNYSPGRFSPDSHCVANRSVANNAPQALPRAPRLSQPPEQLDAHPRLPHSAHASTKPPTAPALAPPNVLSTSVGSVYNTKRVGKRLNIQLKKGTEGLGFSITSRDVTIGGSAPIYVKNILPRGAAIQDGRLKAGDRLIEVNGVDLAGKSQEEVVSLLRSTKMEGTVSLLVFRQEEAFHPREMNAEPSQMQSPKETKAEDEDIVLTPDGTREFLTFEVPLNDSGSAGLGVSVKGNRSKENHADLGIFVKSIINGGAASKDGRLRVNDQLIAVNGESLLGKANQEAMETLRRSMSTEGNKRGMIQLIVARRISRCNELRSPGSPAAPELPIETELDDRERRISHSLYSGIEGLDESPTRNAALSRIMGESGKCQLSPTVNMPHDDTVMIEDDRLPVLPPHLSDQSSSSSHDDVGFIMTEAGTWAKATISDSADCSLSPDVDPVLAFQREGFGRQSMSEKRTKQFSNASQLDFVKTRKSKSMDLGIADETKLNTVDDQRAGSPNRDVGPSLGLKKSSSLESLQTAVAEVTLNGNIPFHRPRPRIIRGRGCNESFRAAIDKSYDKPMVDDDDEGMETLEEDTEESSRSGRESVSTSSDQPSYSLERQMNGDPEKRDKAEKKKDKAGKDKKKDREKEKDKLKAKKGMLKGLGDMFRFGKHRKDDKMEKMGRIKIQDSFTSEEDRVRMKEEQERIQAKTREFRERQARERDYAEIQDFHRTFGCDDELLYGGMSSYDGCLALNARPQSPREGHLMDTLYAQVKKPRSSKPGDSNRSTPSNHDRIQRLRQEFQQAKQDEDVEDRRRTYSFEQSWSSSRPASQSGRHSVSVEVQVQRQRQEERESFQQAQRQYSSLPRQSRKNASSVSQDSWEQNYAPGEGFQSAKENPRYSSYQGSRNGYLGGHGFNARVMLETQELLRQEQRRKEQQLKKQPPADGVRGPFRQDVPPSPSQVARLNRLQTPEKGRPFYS
UniProt P67775: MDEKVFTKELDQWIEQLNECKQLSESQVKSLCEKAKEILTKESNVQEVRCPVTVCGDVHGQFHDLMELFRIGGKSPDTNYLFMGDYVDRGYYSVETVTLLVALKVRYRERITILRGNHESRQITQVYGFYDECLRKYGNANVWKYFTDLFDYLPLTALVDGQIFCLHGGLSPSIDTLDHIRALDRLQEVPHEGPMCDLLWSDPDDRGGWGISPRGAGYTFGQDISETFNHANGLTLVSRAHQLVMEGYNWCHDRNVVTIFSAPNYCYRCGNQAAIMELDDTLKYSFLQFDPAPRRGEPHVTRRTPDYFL
UniProt O97758: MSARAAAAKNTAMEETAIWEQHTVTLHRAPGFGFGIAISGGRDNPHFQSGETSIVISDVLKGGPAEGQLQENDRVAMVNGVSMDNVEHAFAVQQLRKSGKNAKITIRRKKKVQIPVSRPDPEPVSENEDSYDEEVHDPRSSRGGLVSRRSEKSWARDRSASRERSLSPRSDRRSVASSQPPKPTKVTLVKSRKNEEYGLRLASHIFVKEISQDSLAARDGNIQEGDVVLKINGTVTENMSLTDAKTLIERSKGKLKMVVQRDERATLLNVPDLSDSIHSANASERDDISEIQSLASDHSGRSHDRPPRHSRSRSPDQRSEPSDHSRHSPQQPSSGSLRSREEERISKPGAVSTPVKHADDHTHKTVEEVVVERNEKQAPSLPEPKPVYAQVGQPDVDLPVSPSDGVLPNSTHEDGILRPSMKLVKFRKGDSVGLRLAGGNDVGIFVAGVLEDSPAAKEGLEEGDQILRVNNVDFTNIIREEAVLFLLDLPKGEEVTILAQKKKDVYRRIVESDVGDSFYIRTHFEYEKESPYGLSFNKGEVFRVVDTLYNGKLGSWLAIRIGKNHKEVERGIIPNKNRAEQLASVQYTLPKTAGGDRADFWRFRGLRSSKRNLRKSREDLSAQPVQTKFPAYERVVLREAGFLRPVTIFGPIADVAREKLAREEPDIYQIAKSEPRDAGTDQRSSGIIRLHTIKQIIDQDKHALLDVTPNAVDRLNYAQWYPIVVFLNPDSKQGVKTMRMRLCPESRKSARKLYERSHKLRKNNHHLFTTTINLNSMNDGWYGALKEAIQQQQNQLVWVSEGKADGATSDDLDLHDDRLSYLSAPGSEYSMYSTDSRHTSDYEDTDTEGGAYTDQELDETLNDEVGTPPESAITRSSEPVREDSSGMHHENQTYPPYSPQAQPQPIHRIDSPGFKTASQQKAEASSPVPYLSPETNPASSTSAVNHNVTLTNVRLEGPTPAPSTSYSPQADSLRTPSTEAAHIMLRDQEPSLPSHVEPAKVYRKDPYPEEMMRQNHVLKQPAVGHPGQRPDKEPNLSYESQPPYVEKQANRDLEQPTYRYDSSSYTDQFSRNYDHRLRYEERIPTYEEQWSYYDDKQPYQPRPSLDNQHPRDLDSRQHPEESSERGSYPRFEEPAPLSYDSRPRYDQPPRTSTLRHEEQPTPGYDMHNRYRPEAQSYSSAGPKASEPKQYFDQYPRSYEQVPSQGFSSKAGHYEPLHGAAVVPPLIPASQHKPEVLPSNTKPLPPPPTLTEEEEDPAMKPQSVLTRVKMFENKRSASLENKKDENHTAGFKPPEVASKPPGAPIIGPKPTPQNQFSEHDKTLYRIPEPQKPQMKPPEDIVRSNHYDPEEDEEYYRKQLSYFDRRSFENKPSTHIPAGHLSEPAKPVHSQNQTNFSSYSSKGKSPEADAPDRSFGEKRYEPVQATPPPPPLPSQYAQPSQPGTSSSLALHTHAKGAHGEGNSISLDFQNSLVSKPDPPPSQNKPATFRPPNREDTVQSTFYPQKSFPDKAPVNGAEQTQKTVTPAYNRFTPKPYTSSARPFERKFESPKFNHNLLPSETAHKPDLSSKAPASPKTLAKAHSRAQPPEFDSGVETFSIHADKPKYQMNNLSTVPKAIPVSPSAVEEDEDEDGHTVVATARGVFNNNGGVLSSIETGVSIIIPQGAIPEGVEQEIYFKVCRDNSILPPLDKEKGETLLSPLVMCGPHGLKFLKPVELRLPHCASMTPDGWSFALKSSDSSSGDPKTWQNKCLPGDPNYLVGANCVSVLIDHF

The target of assay [1] is myc-tagged Par3 (Par3^WT) (UniProt Q9Z340). In words: co-IP; total lysates (buffer 2) of MDCK cells stably expressing myc-Par3 and transfected with WTC, L309Δ or empty vector, immunoprecipitated overnight at 4°C with anti-myc antibody coupled magnetic beads; Western blot for HA-PP2Ac. (A western blot detects proteins with antibodies after separation by electrophoresis.)
Assay [2] concerns the target HA-tagged L309Δ PP2Ac mutant (UniProt P67775). Kind of assay: co-IP; total MDCK cell lysates in buffer 2 (10 mM Tris pH 7.4, 150 mM NaCl, 1% NP-40, 0.5% sodium deoxycholate, 0.5 μM OA, protease and phosphatase inhibitors), immunoprecipitated overnight at 4°C with anti-HA antibody coupled magnetic beads, washed 5 times; Western blot for endogenous ZO-1, occludin, Par3, aPKCζ; cells transfected with WTC, L309Δ or empty vector.

Assay [3] has as its target HA-tagged PP2Ac (protein phosphatase 2A catalytic C subunit, wild type) (UniProt P67775). The assay is described as above.

Results are given in words; binding and its absence hold for the method and conditions named. Binding seen in cells or lysates may run through a third protein. Some results given as binding are weak or reduced against the parent protein; the word gives no strength.

For “HA-tagged L309Δ PP2Ac mutant (from UniProt P67775 1-309) (enzyme)”, the binding entry in assay [1] is recorded as “no binding”. As for “HA-tagged PP2Ac (protein phosphatase 2A catalytic C subunit, wild type) (from UniProt P67775 1-309) (enzyme)”, in assay [1], the binding entry is given as “binds”. In the case of “ZO-1 (zonula occludens protein 1) (from UniProt O97758 1-1769)”, the binding result in assay [2] is on record as “no binding”; in assay [3], “binds”.

B1: occludin (protein, UniProt Q28269 1-521)
chain: MSSRPFESPPPYRPDEFKPNHYAPSNDVYGGDMHVRPMLSQPAYSFYPEDEILHFYKWTSPPGVIRILSMLVIVMCIAIFGCVASTLAWDRGYGTGLMGGSIGYPYGSGFGSYGTGYGYGFGYGYGYGGYTDPRAAKGFLLAMVAFCFIAALVIFVTSVIRSDISRTRRYYLTVIILSAFLGVMMFIATIVYIMGVNPTAQASGSLYSSQIYAMCNQFYASTATGLYMDQYLYHYCVVDPQEAIAIVLGFMVIVAFALIIFFAVKTRRKMDRYDKSNILWDKEHIYDEQPPNVEEWVKNVSAGTQDMPPPPSDYVERVDSPMAYSSNGKVNDKRLYPESSYKSTPVPEVVQELPATSPADDFRQPRYSSSGHLEPPSKRAPSKGRTGRPKRLEQDHYETDYTTGGESCDELEEDWIREYPPITSDQQRQLYKRNFDTGLQEYKSLQAELDEINKELSRLDKELDDYREESEEYMAAADEYNRLKQVKGSPDYKNKRNYCKQLKSKLSHIKKMVGDYDRQKT
Consider B1, for which the binding result was “no binding” in assay [2] and “binds” in assay [3].
